This note sets out measurements from publication PMC5431898.

No constants are given. Whether binding was seen depends on the method and setting. In cells and extracts the contact can be indirect. Some entries that bind do so weakly or less than the wild type. Tags and fused reporters may be left off the sequences shown.

Assay [1] deals with T1, HA-GI^N (GI N-terminal polypeptide, aa 1-858) (Arabidopsis) (UniProt Q9SQI2).
T1 sequence: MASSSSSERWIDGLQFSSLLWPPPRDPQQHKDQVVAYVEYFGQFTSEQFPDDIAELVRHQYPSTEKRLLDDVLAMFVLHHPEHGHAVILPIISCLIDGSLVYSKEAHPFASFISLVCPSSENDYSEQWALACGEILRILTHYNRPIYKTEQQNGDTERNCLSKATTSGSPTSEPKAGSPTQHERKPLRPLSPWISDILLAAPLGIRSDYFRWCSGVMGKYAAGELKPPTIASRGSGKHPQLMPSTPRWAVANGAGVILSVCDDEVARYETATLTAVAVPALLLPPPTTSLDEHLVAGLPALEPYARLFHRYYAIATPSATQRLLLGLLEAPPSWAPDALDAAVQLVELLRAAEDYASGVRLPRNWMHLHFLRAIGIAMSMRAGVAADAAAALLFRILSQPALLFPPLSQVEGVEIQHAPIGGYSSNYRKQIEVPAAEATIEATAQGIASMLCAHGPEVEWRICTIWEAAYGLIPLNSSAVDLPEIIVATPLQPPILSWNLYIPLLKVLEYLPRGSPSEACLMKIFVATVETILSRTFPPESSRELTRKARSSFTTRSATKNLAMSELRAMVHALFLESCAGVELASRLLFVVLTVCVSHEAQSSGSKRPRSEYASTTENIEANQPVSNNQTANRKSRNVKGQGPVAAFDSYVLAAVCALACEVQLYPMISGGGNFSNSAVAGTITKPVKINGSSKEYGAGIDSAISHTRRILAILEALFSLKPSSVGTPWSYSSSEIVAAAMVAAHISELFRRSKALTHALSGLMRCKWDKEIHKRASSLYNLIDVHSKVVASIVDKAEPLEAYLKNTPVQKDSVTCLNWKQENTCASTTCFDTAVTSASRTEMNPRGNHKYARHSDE
In words: co-IP; HA-tagged GI FL, GI^N or GI^C co-infiltrated with GFP-tagged ZTL WT or ZTL^C82A into N. benthamiana leaves; IP with HA antibody (3F10), blots with anti-HA and anti-GFP.

Assay [2] has as its target T2, HA-tagged GI full length (FL) (Arabidopsis) (UniProt Q9SQI2).
T2 sequence: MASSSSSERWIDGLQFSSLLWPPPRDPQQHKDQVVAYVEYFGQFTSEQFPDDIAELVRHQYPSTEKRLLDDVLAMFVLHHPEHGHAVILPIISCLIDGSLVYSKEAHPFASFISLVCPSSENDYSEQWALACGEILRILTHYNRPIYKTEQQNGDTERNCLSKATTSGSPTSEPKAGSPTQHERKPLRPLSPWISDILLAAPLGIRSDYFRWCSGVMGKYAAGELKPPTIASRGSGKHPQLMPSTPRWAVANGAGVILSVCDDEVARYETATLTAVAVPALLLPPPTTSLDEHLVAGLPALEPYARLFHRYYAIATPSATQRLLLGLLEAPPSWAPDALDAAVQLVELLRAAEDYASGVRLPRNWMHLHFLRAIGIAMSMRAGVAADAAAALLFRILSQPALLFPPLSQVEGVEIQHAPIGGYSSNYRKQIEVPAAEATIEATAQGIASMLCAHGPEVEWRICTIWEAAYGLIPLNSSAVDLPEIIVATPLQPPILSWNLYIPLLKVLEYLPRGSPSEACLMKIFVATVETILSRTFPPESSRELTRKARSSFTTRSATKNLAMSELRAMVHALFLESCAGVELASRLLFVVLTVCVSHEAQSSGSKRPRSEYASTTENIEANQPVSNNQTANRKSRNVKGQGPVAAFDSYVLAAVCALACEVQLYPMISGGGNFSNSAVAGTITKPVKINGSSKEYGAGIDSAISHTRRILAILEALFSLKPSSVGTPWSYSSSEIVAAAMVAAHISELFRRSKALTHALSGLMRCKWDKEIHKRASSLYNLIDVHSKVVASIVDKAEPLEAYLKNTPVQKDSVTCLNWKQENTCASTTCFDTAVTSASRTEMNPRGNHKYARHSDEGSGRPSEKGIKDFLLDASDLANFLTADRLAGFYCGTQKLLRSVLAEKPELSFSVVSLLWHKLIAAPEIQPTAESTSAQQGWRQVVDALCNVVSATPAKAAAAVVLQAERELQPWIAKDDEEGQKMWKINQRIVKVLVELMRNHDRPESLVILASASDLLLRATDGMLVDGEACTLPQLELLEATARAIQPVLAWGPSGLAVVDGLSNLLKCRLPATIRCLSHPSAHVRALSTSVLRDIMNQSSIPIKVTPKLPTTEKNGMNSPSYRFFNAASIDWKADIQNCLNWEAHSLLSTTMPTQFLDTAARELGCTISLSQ
The description is as above.

B1: GFP-tagged ZTL^C82A (protein, UniProt Q94BT6 1-609)
chain: MEWDSGSDLSADDASSLADDEEGGLFPGGGPIPYPVGNLLHTAPCGFVVTDAVEPDQPIIYVNTVFEMVTGYRAEEVLGGNARFLQCRGPFAKRRHPLVDSMVVSEIRKCIDEGIEFQGELLNFRKDGSPLMNRLRLTPIYGDDDTITHIIGIQFFIETDIDLGPVLGSSTKEKSIDGIYSALAAGERNVSRGMCGLFQLSDEVVSMKILSRLTPRDVASVSSVCRRLYVLTKNEDLWRRVCQNAWGSETTRVLETVPGAKRLGWGRLARELTTLEAAAWRKLSVGGSVEPSRCNFSACAVGNRVVLFGGEGVNMQPMNDTFVLDLNSDYPEWQHVKVSSPPPGRWGHTLTCVNGSNLVVFGGCGQQGLLNDVFVLNLDAKPPTWREISGLAPPLPRSWHSSCTLDGTKLIVSGGCADSGVLLSDTFLLDLSIEKPVWREIPAAWTPPSRLGHTLSVYGGRKILMFGGLAKSGPLKFRSSDVFTMDLSEEEPCWRCVTGSGMPGAGNPGGVAPPPRLDHVAVNLPGGRILIFGGSVAGLHSASQLYLLDPTEDKPTWRILNIPGRPPRFAWGHGTCVVGGTRAIVLGGQTGEEWMLSELHELSLASYLT
With B1, the binding result in assay [1] and in assay [2] was “binds weakly” each time.
